Values come from read counts of a selection and are noisy.
test system: NB7; experiment: fold depletion of shRNA, plasmid library share / infected cells without Dox share (9 days) (ratio); higher = more depleted after infection (more toxic, leaky expression from a Tet-inducible vector; NB7 is a neuroblastoma line without caspase-8); settings: shRNA pool: CD95L ORF + CD95L 3'UTR + Venus libraries
Protocol: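 Pooled lethality screen in NB7 neuroblastoma cells infected with Dox-inducible pTIP shRNA libraries. The libraries tile every 21-mer of the Venus, CD95L or CD95 ORF / 3'UTR; each hairpin is the 21-nt sense sequence + CTCGAG loop + antisense. Cells were cultured 9 days with or without 100 ng/ml Dox. shRNA representation was measured by deep sequencing of the genomic inserts, normalised to the total reads per subpool and averaged over technical replicates. Fold depletion is the plasmid library share / infected cells without Dox share (mean of 2 biological replicates), and the -Dox/+Dox share ratio is the mean of 4 replicate pairings; higher values mean more depletion (toxicity).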
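Further: shRNA barcodes quantified by deep sequencing of PCR amplicons from cellular DNA, counts expressed as percent of each subpool, ratio averaged over two biological duplicates.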

| Sequence | fold depletion of shRNA |
| --- | --- |
| AAGTATAAGAAGGGTGGCCTT | 0.606 |
| AAGTATACTTCCGGGGTCAAT | 5.24 |
| AAGTCCGCCATGCCCGAAGGC | 0.695 |
| AAGTGGACCTTGAGACCACAG | 5.06 |
| AAGTGGCCCATTTAACAGGCA | 1.95 |
| AAGTTCAGCGTGTCCGGCGAG | 1.74 |
| AAGTTCGAGGGCGACACCCTG | 3.16 |
| AATAAAAAGTATATGTTAGGA | 0.493 |
| AATAAATATTTATGTAGATGT | 1 |
| AATAAGCTAAAGAGGCTGAAA | 1.85 |
| AATAGTGCTTAAAAATCATTG | 0.879 |
| AATATAATAAATATTTATGTA | 0.97 |
| AATATGACGGAAGAACATAGA | 2.08 |
| AATCAACTCTAATAGTGCTTA | 0.79 |
| AATCATTGATTGTCAGCTACT | 2.23 |
| AATCTCAGACGTTTTTCGGCT | 10 |
| AATCTTACCAGTGCTGATCAT | 1.57 |
| AATGAAAACATGTAATAAAAA | 0.501 |
| AATGAAACTGGGCTGTACTTT | 1.12 |
| AATGATGTTTTCCTATAATAT | 0.701 |
| AATGCATATCCTGAGCCATCG | 0.577 |
| AATGCCCCACTGGCAGCATCT | 0.74 |
| AATGCTTCCTGACAATCAACT | 0.672 |
| AATGGAGGAATATGACGGAAG | 1.49 |
| AATGGGAAGACACCTATGGAA | 0.708 |
| AATGTAGATATTGTGAAGTAC | 0.728 |

| Sequence | fold depletion of shRNA |
| --- | --- |
| AATGTCTGTAGCTCCTCAACT | 0.868 |
| AATGTTGTATTCAGTGAGGGT | 4.83 |
| AATGTTTATGAGCCAGACAAA | 4.43 |
| AATTACCCATATCCCCAGATC | 1.81 |
| AATTGTAGGGGTGTGTGTGTG | 2.46 |
| AATTGTCCTGCTTTCTGGAGT | 1.65 |
| AATTTTGAGGAATCTCAGACG | 1.2 |
| ACAAATGGAGGAATATGACGG | 0.974 |
| ACAACAGCCACAACGTCTATA | 3.28 |
| ACAACATCGAGGACGGCGGCG | 0.721 |
| ACAACCACTACCTGAGCTACC | 3.6 |
| ACAACCTGCCCCTGAGCCACA | 15.6 |
| ACAACGTCTATATCACCGCCG | 1.83 |
| ACAACTACAACAGCCACAACG | 3.93 |
| ACAAGACCCGCGCCGAGGTGA | 0.423 |
| ACAAGCTGGAGTACAACTACA | 3.88 |
| ACAAGGTCTACATGAGGAACT | 0.347 |
| ACAAGTTCAGCGTGTCCGGCG | 0.986 |
| ACAATCAACTCTAATAGTGCT | 1.2 |
| ACACAGCATCATCTTTGGAGA | 1.31 |
| ACACAGCATGTGTATTTCCAG | 2.29 |
| ACACCCCCATCGGCGACGGCC | 0.377 |
| ACACCCTGGTGAACCGCATCG | 2.13 |
| ACACCTATGGAATTGTCCTGC | 1.11 |
| ACACCTTTTAACTCACCTCTC | 2.2 |

same assay, conditions: shRNA pool: CD95 ORF + CD95 3'UTR + Venus libraries

| Sequence | fold depletion of shRNA |
| --- | --- |
| AAGTACGTAATTAAATAATGT | 0.925 |
| AAGTAGCTTTGTGACATGTCA | 0.351 |
| AAGTATATGTATTTGAGTGCA | 1.53 |
| AAGTCAAGTTAAAGGCTTTGT | 1.02 |
| AAGTCCGCCATGCCCGAAGGC | 0.549 |
| AAGTGACTGACATCAACTCCA | 2.12 |
| AAGTGCAAAGAGGAAGGATCC | 2.27 |
| AAGTGCAGATGTAAACCAAAC | 2.22 |
| AAGTGGAAATAAACTGCACCC | 3.82 |
| AAGTGTTAATGCCCAAGTGAC | 3.54 |
| AAGTTAAAGGCTTTGTTCGAA | 1.19 |
| AAGTTCAACTGCTTCGTAATT | 1.72 |
| AAGTTCAGCGTGTCCGGCGAG | 2.48 |
| AAGTTCGAGGGCGACACCCTG | 1.42 |
| AAGTTTCTAAGATTTAAGATT | 1.91 |
| AAGTTTGTATTAAATGTGAAT | 0.795 |
| AATAAACTGCACCCGGACCCA | 1.55 |
| AATAAATTTATCTGATGTTGA | 1.09 |
| AATAATATTTATATTTCTGTA | 0.989 |
| AATAATGTCCCATGTAAAACC | 2.13 |
| AATACCAAGTGCAGATGTAAA | 0.805 |
| AATACTGCTTGGTTTTTTACT | 1.74 |

| Sequence | fold depletion of shRNA |
| --- | --- |
| AATACTTAATAGTCCACCAAA | 1.36 |
| AATAGATGAGATCAAGAATGA | 1.14 |
| AATAGATTCTTATTTTTCCCC | 1.31 |
| AATAGGAGTGTATGCAGAGGA | 1.06 |
| AATATAGGTAAAAGTACGTAA | 0.933 |
| AATATATCACCACTATTGCTG | 1.03 |
| AATATCACCAAAAAATACTTA | 0.886 |
| AATATCAGTTACTGAACAGGC | 1.48 |
| AATATCTCATGATTCTGCCTC | 0.977 |
| AATATCTTTGAAAGTTTGTAT | 1.05 |
| AATATTTATATTTCTGTAAAT | 1.24 |
| AATATTTCAATTGTGAATTCA | 1.08 |
| AATCAAAGATGATAAAATAGA | 0.931 |
| AATCAATAGAAGAAGCTATGA | 1.25 |
| AATCAGTGTATGTTAGTACAA | 0.873 |
| AATCATCAAGGAATGCACACT | 1.62 |
| AATCATCATCTGGATTTAGGA | 1.05 |
| AATCCTGAAACAGTGGCAATA | 1.41 |
| AATCTAGTTGGGAAAACAAAC | 0.852 |
| AATCTCCAACTTTAAATCCTG | 1.09 |
| AATCTTTGTACTCTTGCAGAG | 1.08 |
| AATGAAATCCAAAGCTTGGTC | 1.83 |

| Sequence | fold depletion of shRNA |
| --- | --- |
| AATGAAGCCAAAATAGATGAG | 2.53 |
| AATGACAATGTCCAAGACACA | 2.36 |
| AATGCACCCCCAAACATGGAA | 4.62 |
| AATGCAGAAGATGTAGATTGT | 0.97 |
| AATGCAGTGGCATGCTAAGTA | 0.901 |
| AATGCCCAAGTGACTGACATC | 0.596 |
| AATGGCAGCTTATACATAGCA | 1.67 |
| AATGGCCTAATGCACCCCCAA | 5.59 |
| AATGGGGATGAACCAGACTGC | 2.15 |
| AATGGTAAAATCATCATCTGG | 2.46 |
| AATGGTGTCAATGAAGCCAAA | 2.84 |
| AATGTAAACTGTGAAGATAGT | 1.05 |
| AATGTAATCAGTGTATGTTAG | 1.38 |
| AATGTCCAAGACACAGCAGAA | 1.62 |
| AATGTCCCATGTAAAACCTGC | 0.987 |
| AATGTCTATCCACAGGCTAAC | 2.81 |
| AATGTGAACATGGAATCATCA | 1.22 |
| AATGTGAATTTTAAGAAATAA | 1.4 |
| AATGTTCAATAATGTCCCATG | 1.18 |
| AATGTTTGACTATTATATATG | 0.849 |
| AATTACCTCTGATAATTCTAG | 1.1 |
| AATTAGTGTTTGAAAAGATTC | 1.16 |

| Sequence | fold depletion of shRNA |
| --- | --- |
| AATTATAAAATATAGGTAAAA | 1.03 |
| AATTATAATGTTTGACTATTA | 0.818 |
| AATTCAAACTTCAGAAATGAA | 0.854 |
| AATTCACATAGAAAACATTAA | 0.945 |
| AATTCAGACTATCATCCTCAA | 1.19 |
| AATTCAGTTCTGAGTATATGC | 2.34 |
| AATTCCACTAATTGTTTGGGT | 1.23 |
| AATTCTAGAGATTTTACCATA | 0.782 |
| AATTCTGCCATAAGCCCTGTC | 0.428 |
| AATTGAGGAAGACTGTTACTA | 0.891 |
| AATTGCTCTTGTCATACCCCC | 2.89 |
| AATTGGCATCAACTTCATGGA | 1.59 |
| AATTGTGAATTCACATAGAAA | 0.715 |
| AATTGTTTGGGTGAAGAGAAA | 1.34 |
| AATTTAAATAAGGCTCTACCT | 1.04 |
| AATTTATCTGATGTTGACTTG | 1.92 |
| AATTTTAAGAAATAATATTTA | 1.44 |
| ACAAACTTCATCAAGAGTAAA | 0.854 |
| ACAAAGCCCATTTTTCTTCCA | 1.65 |
| ACAAATGGCAGCTTATACATA | 1.43 |
| ACAAATGTCTATCCACAGGCT | 0.952 |
| ACAAATTCAGTTCTGAGTATA | 1.26 |

| Sequence | fold depletion of shRNA |
| --- | --- |
| ACAACAAATTCAGTTCTGAGT | 1.74 |
| ACAACAGCCACAACGTCTATA | 2.21 |
| ACAACATCGAGGACGGCGGCG | 1.03 |
| ACAACCACTACCTGAGCTACC | 2.65 |
| ACAACGTCTATATCACCGCCG | 2.38 |
| ACAACTACAACAGCCACAACG | 4.5 |
| ACAAGACCCGCGCCGAGGTGA | 0.591 |
| ACAAGCAGAAGAACGGCATCA | 0.81 |
| ACAAGCTGGAGTACAACTACA | 2.63 |
| ACAAGTTCAGCGTGTCCGGCG | 1.73 |
| ACAATATTTCAATTGTGAATT | 0.564 |
| ACAATGTCCAAGACACAGCAG | 1.27 |
| ACACAGACAAAGCCCATTTTT | 1.12 |
| ACACAGCAGAACAGAAAGTTC | 0.622 |
| ACACATTGATTAAAGATCTCA | 0.954 |
| ACACCAAGTGCAAAGAGGAAG | 1.08 |
| ACACCCCCATCGGCGACGGCC | 0.769 |
| ACACCCTGGTGAACCGCATCG | 1.22 |
| ACACTAAGTCAAGTTAAAGGC | 1.12 |
